“And” between values parts separate entries of the source, which are not always exact repeats. Equal entries are not always repeated. Among all 420,000 compounds or so, about 50,000 (12%) were called active. The inconclusive results got no clear call from the source; some entries with a clear call stand among them for comparison. Calls follow the shape of the dose curve; as a rule, active = well fitted inhibition curve with a large enough effect; inconclusive = small, poorly fitted or top-dose-only effect; inactive = flat fitted curve, though single readings scatter. Potencies beside an inconclusive call are fits to weak or partial responses and may not hold up.
Assay: qHTS for Inhibitors of human tyrosyl-DNA phosphodiesterase 1 (TDP1): qHTS in cells in presence of CPT; also: nearly all actives have a fitted effect of over 55% in size
Conditions: chicken DT40 Tdp1-/-;hTDP1 cells + 20 nM CPT, ATP luminescence, 48 h; activity change, negative = growth inhibition: at 46.2 µM (top of the series)
Summary of the method: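 Chicken DT40 Tdp1-/- cells stably complemented with human TDP1 were seeded at 400 cells/well in medium containing 20 nM camptothecin, exposed to pin-transferred compounds, and grown at 37 °C for at least 48 hr. Viability was read as ATP luminescence.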
% is scaled to controls: 0 for no effect and ±100 for the full control effect; potency is read from the fitted curve at half-maximal effect; tags tell the direction and shape of the fitted curve.

| SMILES | activity change, negative = growth inhibition | Potency |
| --- | --- | --- |
| N#CCC(=O)N/N=C/c1ccc(Cl)cc1 | inconclusive: -10.8% [inhibitor] |  |
| CC[C@H](C)C(=O)O[C@H]1CCC=C2C=C[C@H](C)[C@H](CC[C@@H]3C[C@H](O)CC(=O)O3)[C@H]21 |  | active: 18.8 µM |
| CC(C)(C)c1ccc(-n2nc(C(N)=O)c(O)cc2=O)cc1 |  | inconclusive: 29.1 µM [inhibitor, single point] |
| CCOC(=O)C1CCC/C1=N\NC(=O)CN(c1cc(OC)ccc1OC)S(=O)(=O)c1ccccc1 (stereo not given) | inactive: -8.78% |  |
| COc1ccc(CC(=O)N2CCN(c3cccc(Cl)c3)CC2)cc1OC |  | inconclusive: 29.1 µM [inhibitor, single point] |
| Cc1cc(N2CCN(c3cccc(C)c3C)CC2)n2nc(C)c(-c3ccc(Cl)cc3)c2n1 | inactive: -9.31% |  |
| CCCNC(=O)C1(C)CCN(Cc2cc(-c3ccccc3)on2)C1 (stereo not given) |  | inconclusive: 20.6 µM [inhibitor, single point] |
| N#CC1(C#N)COC23CCCCC2C1(C#N)C(=N)O3 (stereo not given) |  | active: 5.8 µM |
| Cn1cnc2c(ncn2[C@@H]2O[C@H](CO)[C@@H](O)[C@H]2O)c1=N | inactive: 0.505% |  |
| COc1ccc(-c2cc(C(=O)OCC(=O)N3CCCC3)c3ccccc3n2)cc1 |  | inconclusive: 25.9 µM [inhibitor, single point] |
| CCN1CCN(c2ccc(S(=O)(=O)N3CCOCC3)cc2NC(=O)C(C)Oc2cccc(Cl)c2)CC1 (stereo not given) |  | inconclusive: 20.6 µM [inhibitor, single point] |
| COc1ccc(C(=O)NNC(=S)NC2CCCCC2)cc1OC |  | inconclusive: 29.1 µM [inhibitor, single point] |
| COc1cc(OC)cc(C(=O)NCCc2cnc[nH]2)c1 |  | inconclusive: 23.1 µM [inhibitor, single point] |
| COc1ccc2sc(/C=C/c3ccccc3O)[n+](C)c2c1 |  | active: 23.1 µM |
| Cc1ccccc1CNC(=O)c1cc2cc(S(=O)(=O)N3CCCCC3)ccc2n1C |  | inconclusive: 18.4 µM [inhibitor, single point] |
| O=S(=O)(Nc1nccs1)c1ccc(Nc2nnc(-c3ccccc3)c3ccccc23)cc1 | inconclusive: -30.7% [inhibitor] |  |
| COc1ccc(-n2c(-c3ccco3)nc3c(cnn3-c3ccccc3C)c2=O)cc1 |  | inconclusive: 14.6 µM [inhibitor, partial curve] and inconclusive: 16.4 µM [inhibitor, partial curve] |
| O=C(CSc1nnc(Cc2ccccc2)o1)N1CCc2ccccc21 | inactive: -5.85% |  |
| CCCCN(C=O)c1c(CC)nc2c(OCc3ccc(Cl)cc3)cccn12 |  | active: 18.4 µM |
| CC1CCC2(CC1)NC(=O)N(CC(=O)N1CCN(S(=O)(=O)c3ccc4c(c3)CCC4)CC1)C2=O (stereo not given) |  | inconclusive: 25.9 µM [inhibitor, single point] |
| Cc1ccc([C@H]2C[C@@H](n3cc(-c4ccc(F)cc4)nn3)[C@H](O)CN2CC2CCCCC2)cc1 | inactive: -87.4% |  |
| CCOc1ccc(C2c3c(oc4ccccc4c3=O)C(=O)N2c2nnc(C)s2)cc1OC (stereo not given) | inactive: 17.3% |  |
| Cc1cccc(OCc2nnc(SCC(=O)N(c3ccccc3)C3CCS(=O)(=O)C3)o2)c1 (stereo not given) |  | inconclusive: 29.1 µM [inhibitor, single point] |
| Cc1ccccc1OCC(=O)NCC(=O)OCc1ccc2ccccc2c1 |  | inconclusive: 35.5 µM [inhibitor, single point] |

| SMILES | activity change, negative = growth inhibition | Potency |
| --- | --- | --- |
| COC(=O)/C(=C/c1c[nH]c2ccccc12)NC(C)=O | inactive: 0.618% |  |
| CCOC(CCn1c(SCC(=O)Nc2cc(C)on2)nc2ccccc2c1=O)OCC |  | inconclusive: 16.4 µM [inhibitor, single point] |
| CC(=O)NCCCC(=O)NNC1CC(=O)N(c2cccc(Cl)c2)C1=O (stereo not given) |  | inconclusive: 29.1 µM [inhibitor, single point] |
| Cc1cc(C)n2c(Nc3ccccc3)c(-c3ccccc3)nc2n1 |  | active: 16.4 µM |
| CCN1C(=O)[C@H]2[C@@H](c3ccc(C)cc3)N3C(=O)N(c4cccc(Br)c4)C(=O)[C@@]3(CC(C)C)[C@H]2C1=O |  | inconclusive: 29.1 µM [inhibitor, single point] |
| Cc1cc(C)c2oc(C(=O)Nc3ccc(S(=O)(=O)N4CCC(C)CC4)cc3)cc(=O)c2c1 |  | active: 10.3 µM |
| Cc1cc(NC(=O)/C=C/c2ccco2)ccc1NC(=O)c1ccccc1 | inactive: -15.2% |  |
| CN(C(=O)c1ccccc1[N+](=O)[O-])c1ccccc1C(=O)NCc1ccccc1 | inactive: -26.3% |  |
| Cc1cccc(NC(=O)c2ccc(COc3cccc4ccccc34)o2)n1 | inactive: -9.35% |  |
| CC(NC(=O)c1ccc(F)cc1)c1ccc2c(c1)CCCC2 (stereo not given) |  | active: 20.6 µM |
| Cc1cccc(Cn2cnc3c(cnn3-c3ccc(Cl)cc3)c2=O)c1 | inconclusive: -32.5% [inhibitor] |  |
| C[C@@]12CCC=C[C@H]1[C@H](c1ccc(C(F)(F)F)cc1)N(Cc1ccccc1)C2=O |  | inconclusive: 23.1 µM [inhibitor, single point] |
| CCn1cc2nc(SCC(=O)Nc3ccc(F)cc3F)n(Cc3ccccc3)c(=O)c2n1 |  | active: 23.1 µM |
| CC(C)CCNC(=O)C1(O)c2ccccc2NC(=O)N1c1ccc(Cl)cc1 (stereo not given) | inactive: 10.1% |  |
| Cc1ccc(S(=O)(=O)n2nc(-c3ccco3)nc2NCc2ccccc2Cl)cc1 |  | inconclusive: 29.1 µM [inhibitor, single point] |
| COc1ccc(Br)c(Cn2c(C)c(C(=O)N(C)Cc3ccc(F)cc3)sc2=O)c1 |  | inconclusive: 29.1 µM [inhibitor, single point] |
| CCc1nnc(NC(=O)CSc2nnc(-c3c[nH]c4ccccc34)n2CCOC)s1 |  | inconclusive: 14.1 µM [inhibitor, partial curve, poor fit] |
| CCOC(=O)[C@]12CCC=C1N(Cc1ccco1)C(=O)[C@H](CC(=O)NCCCCc1ccccc1)C2 |  | inconclusive: 7.31 µM [inhibitor, single point] |
| Cc1ccc2nc(N3CCN(C(=O)c4ccco4)CC3)sc2c1 | inactive: 7.4% |  |
| Cc1sc2ncnc(N3CCN(Cc4ccccc4)CC3)c2c1-c1ccccc1 |  | inconclusive: 18.4 µM [inhibitor, single point] |
| CCCOc1ccc(N/C=C/C(=O)c2cc(OC)c(OC)c(OC)c2)cc1 |  | inconclusive: 23.1 µM [inhibitor, single point] |
| Cc1cccc(C)c1NC(=O)CCCN1C(=O)CCn2nc(-c3cn(C)c4ccccc34)cc21 |  | inconclusive: 16.4 µM [inhibitor, partial curve] |
| CCOC(=O)c1cccc(C2=CC(=O)CC(C)(C)C2)c1 |  | inconclusive: 20.6 µM [inhibitor, single point] |
| CC(=O)c1sc(NC(=O)c2c(F)cccc2F)nc1C | inactive: -7.84% |  |

| SMILES | activity change, negative = growth inhibition | Potency |
| --- | --- | --- |
| CC(C)NC(=O)C1CCCN(c2ncnc3c2nc2n3CCCCC2)C1 (stereo not given) |  | inconclusive: 29.1 µM [inhibitor, single point] |
| Cc1ccc(NC(=O)N(Cc2nc3ccccc3c(=O)[nH]2)Cc2cccs2)cc1 |  | inconclusive: 29.1 µM [inhibitor, single point] |
| Cc1ccc(C)c(S(=O)(=O)N2CCN(CC(=O)N3CCc4ccccc4C3)CC2)c1 | inactive: -21.4% |  |
| CC1Sc2ccc(S(=O)(=O)CCC(=O)N3CCCC3)cc2NC1=O (stereo not given) | inactive: -4.3% |  |
| CCn1c(C2CC(=O)N(Cc3ccccc3)C2)nc2ccccc21 (stereo not given) | inactive: -15.3% |  |
| COc1ccc(Cl)cc1NC(=O)Cn1cnc2c1c(=O)n(C)c(=O)n2C |  | inconclusive: 3.66 µM [inhibitor, single point] |
| COCCCNC(NC(=O)c1ccc(OC)cc1)C(Cl)(Cl)Cl (stereo not given) |  | inconclusive: 29.1 µM [inhibitor, single point] |
| Cn1cccc1Cc1nnc(SCC(=O)N2CCN(c3ccccc3)CC2)n1-c1ccc(F)cc1 |  | inconclusive: 20.6 µM [inhibitor, single point] |
| COc1ccc(OCCN2CCC(C(=O)NC(C)c3cccc4ccccc34)CC2)cc1 (stereo not given) |  | inconclusive: 13 µM [inhibitor, single point] |
| COc1ccc(-c2noc(-c3ccc(Cl)cc3[N+](=O)[O-])n2)cc1OC | inactive: 5.77% |  |
| CC(NC(=O)c1ccc2c(c1)N(Cc1ccc(Cl)cc1)C(=O)c1ccccc1S2=O)c1ccccc1 (stereo not given) | inconclusive: -32.5% [inhibitor] |  |
| Cc1ccc(CNC(=O)CCCn2c(=O)c3ccccc3n(Cc3ccccc3C)c2=O)cc1 |  | inconclusive: 29.1 µM [inhibitor, single point] |
| Cc1sc(NC(=O)c2ccccc2F)c(CN2CCCCC2C)c1C (stereo not given) |  | active: 18.4 µM |
| CCOc1ncccc1C(=O)OCCCC(=O)c1ccc(Br)cc1 | inactive: 2.31% |  |
| Cc1cc(OCCCN2CCCC2)ccc1Cl | inactive: -16.1% |  |
| N=c1c2c3c(sc2ncn1Nc1ccccc1)CCC3 |  | inconclusive: 18.4 µM [inhibitor, single point] |
| CCn1cc(CNC(=O)c2cccc([N+](=O)[O-])c2)cn1 | inactive: 7% |  |
| Cn1c(=O)n(C)c2cc(N3CCOCC3)c(NC(=O)c3c(F)cccc3F)cc21 |  | inconclusive: 20.6 µM [inhibitor, single point] |
| COc1ccc(C(=O)NCC(c2ccc(N(C)C)cc2)N2CCc3ccccc32)cc1 (stereo not given) |  | active: 7.31 µM |
| N#C/C(=C(/O)CN1CCN(c2ccccc2F)CC1)c1nc(-c2ccc(Cl)cc2)cs1 |  | active: 20.6 µM |
| Cc1cc(C)c2sc(NC(=O)c3ccc(S(=O)(=O)N4CCOCC4)cc3)nc2c1 |  | inconclusive: 20.6 µM [inhibitor, partial curve] |
| Cc1ccc(Cl)c(OCC(=O)OCC(=O)c2ccc[nH]2)c1 |  | inconclusive: 23.1 µM [inhibitor, single point] |

Source: PubChem BioAssay AID686979 (National Center for Advancing Translational Sciences (NCATS), 2013)
